Measurements as given in publication PMC11911400, “Mechanism of ASF1 engagement by CDAN1” (Nature Communications, 2025).
Positions count from the first letter of the chain named. These are yes or no findings as the source states them, for the method shown. In cells and extracts the contact can be indirect.

Protein sequences, listed by entry. Tags and fused reporters are not part of them.
UniProt Q9NVP2: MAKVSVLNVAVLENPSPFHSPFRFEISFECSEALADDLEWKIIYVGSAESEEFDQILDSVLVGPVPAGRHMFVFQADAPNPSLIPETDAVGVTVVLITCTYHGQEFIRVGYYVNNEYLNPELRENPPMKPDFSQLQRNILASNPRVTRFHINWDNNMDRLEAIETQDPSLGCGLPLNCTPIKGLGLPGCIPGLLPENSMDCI

How the values were obtained:
[1] = biological target: T1, Strep-CDAN1 HMHA1* BDA1* HMHA2* (three elements mutated) (human) (UniProt Q8IWY9); assay: pull-down; Strep-Tactin pulldown of transiently transfected ST-CDAN1 variants from Flp-In 293 T-REx lysates; endogenous ASF1A, ASF1B and CDIN1 detected by immunoblotting; IP buffer with 1% Triton X-100, 1 hr at 4 °C
T1 sequence: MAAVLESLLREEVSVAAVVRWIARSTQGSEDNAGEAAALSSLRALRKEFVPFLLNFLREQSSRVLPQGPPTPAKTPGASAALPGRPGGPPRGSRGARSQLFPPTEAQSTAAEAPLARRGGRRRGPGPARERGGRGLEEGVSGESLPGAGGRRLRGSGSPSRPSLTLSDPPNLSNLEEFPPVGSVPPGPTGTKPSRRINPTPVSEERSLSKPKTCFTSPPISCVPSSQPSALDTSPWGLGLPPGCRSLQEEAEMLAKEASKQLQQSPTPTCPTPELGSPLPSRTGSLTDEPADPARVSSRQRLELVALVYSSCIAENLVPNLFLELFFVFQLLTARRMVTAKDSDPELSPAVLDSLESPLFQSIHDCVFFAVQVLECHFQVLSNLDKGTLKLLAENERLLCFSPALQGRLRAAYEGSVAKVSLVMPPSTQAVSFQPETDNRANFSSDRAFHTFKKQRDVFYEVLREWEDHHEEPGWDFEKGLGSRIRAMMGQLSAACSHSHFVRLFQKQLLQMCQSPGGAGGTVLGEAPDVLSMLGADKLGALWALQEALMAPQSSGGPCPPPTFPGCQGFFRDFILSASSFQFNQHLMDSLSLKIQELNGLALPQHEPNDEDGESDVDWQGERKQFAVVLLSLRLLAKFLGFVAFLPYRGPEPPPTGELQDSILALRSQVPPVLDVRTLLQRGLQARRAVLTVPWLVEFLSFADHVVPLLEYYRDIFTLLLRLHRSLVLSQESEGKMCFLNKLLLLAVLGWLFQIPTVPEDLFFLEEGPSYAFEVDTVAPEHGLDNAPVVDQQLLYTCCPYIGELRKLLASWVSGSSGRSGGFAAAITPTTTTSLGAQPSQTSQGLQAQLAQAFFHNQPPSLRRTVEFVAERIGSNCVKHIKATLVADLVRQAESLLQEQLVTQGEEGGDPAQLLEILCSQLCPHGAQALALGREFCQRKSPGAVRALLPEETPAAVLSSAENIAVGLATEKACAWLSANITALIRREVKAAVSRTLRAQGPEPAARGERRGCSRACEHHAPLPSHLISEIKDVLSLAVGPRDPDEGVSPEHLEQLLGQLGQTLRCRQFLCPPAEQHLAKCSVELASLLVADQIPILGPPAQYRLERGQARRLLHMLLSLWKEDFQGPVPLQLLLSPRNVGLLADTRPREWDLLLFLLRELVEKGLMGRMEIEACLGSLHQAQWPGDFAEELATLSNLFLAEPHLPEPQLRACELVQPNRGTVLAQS

[2] = biological target: T2, Strep-CDAN1 HMHA1* BDA1* HMHA2* BDA2* (all four binding elements mutated) (human) (UniProt Q8IWY9); assay: as above
T2 sequence: T1 sequence with S194A, R195A, R196A

binding [1]: no binding
binding [2]: no binding
Substance: endogenous ASF1B (from UniProt Q9NVP2 1-202)
